Measurements from PMC4336329 (PLoS ONE, 2015).
About 2,200 (0.71%) of roughly 310,000 compounds showed an effect of 50% or more. Effects have a minus sign here. This is one part of the list.

These compounds were tested against human ether-à-go-go-related gene (hERG) potassium channel (human, UniProt Q12809) (assay: primary screen, population patch clamp on CHO cells stably expressing hERG).
Chain of human ether-à-go-go-related gene (hERG) potassium channel (Q12809 whole entry, looked up): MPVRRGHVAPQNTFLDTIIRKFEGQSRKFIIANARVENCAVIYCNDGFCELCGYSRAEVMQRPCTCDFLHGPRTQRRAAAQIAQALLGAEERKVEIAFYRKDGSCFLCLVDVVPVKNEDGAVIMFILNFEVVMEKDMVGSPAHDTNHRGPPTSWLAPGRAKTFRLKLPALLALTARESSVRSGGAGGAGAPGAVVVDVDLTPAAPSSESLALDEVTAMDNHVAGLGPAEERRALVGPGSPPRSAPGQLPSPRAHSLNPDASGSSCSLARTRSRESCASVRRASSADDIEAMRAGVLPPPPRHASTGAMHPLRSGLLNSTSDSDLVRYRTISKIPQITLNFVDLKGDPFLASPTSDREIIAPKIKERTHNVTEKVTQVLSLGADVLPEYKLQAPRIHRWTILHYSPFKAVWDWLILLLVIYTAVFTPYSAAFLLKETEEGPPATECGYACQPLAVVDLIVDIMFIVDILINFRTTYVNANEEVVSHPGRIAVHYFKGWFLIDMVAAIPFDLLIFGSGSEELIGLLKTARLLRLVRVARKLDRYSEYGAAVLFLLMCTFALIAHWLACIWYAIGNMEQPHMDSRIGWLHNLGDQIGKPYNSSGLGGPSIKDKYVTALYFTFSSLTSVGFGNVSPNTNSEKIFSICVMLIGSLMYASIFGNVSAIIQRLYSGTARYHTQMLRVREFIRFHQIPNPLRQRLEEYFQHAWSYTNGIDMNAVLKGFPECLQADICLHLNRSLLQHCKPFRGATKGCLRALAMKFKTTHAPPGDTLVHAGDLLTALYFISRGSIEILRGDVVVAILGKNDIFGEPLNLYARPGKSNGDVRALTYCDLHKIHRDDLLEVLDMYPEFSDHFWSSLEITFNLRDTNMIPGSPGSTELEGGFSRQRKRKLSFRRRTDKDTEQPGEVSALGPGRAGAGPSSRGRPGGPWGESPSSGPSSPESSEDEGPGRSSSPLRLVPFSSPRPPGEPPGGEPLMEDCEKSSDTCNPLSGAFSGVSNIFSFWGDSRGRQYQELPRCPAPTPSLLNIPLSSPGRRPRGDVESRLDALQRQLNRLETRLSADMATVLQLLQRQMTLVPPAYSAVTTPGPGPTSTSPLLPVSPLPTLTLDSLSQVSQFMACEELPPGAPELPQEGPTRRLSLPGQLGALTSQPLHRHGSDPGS

Row | SMILES | hERG current change (%, negative = inhibition) at 1uM [%]
1 | C/C=C(/C)C(=O)O[C@@H]1[C@H](OC(C)=O)c2c(ccc3ccc(=O)oc23)OC1(C)C | 2
2 | CCn1cc(C(=O)N2CCc3ccccc32)c(=O)c2cc(S(=O)(=O)N3CCCCCC3)ccc21 | -11
3 | COc1ccccc1NS(=O)(=O)c1cccc(C(=O)NCC(c2cccs2)N2CCOCC2)c1 (stereo not shown) | 0.998
4 | C/C(=N/Nc1ncc(Br)cn1)c1ccc(Br)cc1 | 13.4
5 | CCCc1c(C)nc2c(OC)cccc2c1SCC(=O)O | 5.91
6 | CC[n+]1cc(C)ccc1/C=C/c1ccc(N(C)C)cc1.[I-] | 4.74
7 | CCOC(=O)NC1(C(F)(F)F)NC(=O)N(Cc2ccco2)C1=O (stereo not shown) | 8.54
8 | CCOP(=O)(OCC)C(NC(=O)Nc1ccc(C)c(Cl)c1)c1ccccc1 (stereo not shown) | -0.0549
9 | COc1ccc(C(C)=O)cc1CC(=O)Nc1cccc(S(=O)(=O)N2CCOCC2)c1 | 3.08
10 | Cc1noc(C(=O)NCc2cccnc2)c1Cl | 10.8
11 | Cc1ccc(SCc2nc(N)nc(Nc3ccccc3C)n2)c(C)c1 | 9.06
12 | CN1CCN(CC(=O)Nc2ccccc2[N+](=O)[O-])CC1 | 15.4
13 | CC1CC(C)CN(CCCSc2ccccc2)C1.O=C(O)C(=O)O (stereo not shown) | -37.7
14 | Cc1cccc(C)c1N1CCN(C(=O)c2ccc3c(c2)OCO3)CC1 | 11.7
15 | CCOC(=O)C1CCCN(c2c(N3CCOCC3)c(=O)c2=O)C1 (stereo not shown) | 8.35
16 | COc1ccc(C)cc1-n1c(C)cc(C=O)c1C | 2.41
17 | COc1ccc(NC(=O)c2cc(S(=O)(=O)N3CCCCC3)ccc2OC)cc1 | 8.71
18 | Cc1ccc(S(=O)(=O)Nc2cc(-c3nn(C)c(=O)c4ccccc34)ccc2N2CCOCC2)cc1 | -2.81
19 | Cc1nc2ccccc2n1CC(=O)OCC(=O)Nc1ccc2c(c1)OCCO2 | 13.3
20 | Cc1cccc(CNc2ccc(C(CC(N)=O)NC(=O)Cc3cccc4ccccc34)cc2[N+](=O)[O-])c1 (stereo not shown) | 9.62
21 | CCOC(=O)CC1C(=O)NCCN1c1nc2ccc(C)cn2c(=O)c1/C=C1\SC(=S)N(CC(C)C)C1=O (stereo not shown) | 3.85
22 | Cc1cc(N(C)C)ccc1N=Nc1ccc(N)cc1 | 7.2

Row | SMILES | hERG current change (%, negative = inhibition) at 1uM [%]
23 | O=S(=O)(/C=C/c1ccccc1)c1ccccc1 | 18.5
24 | Cc1nnc(SCC(=O)Nc2ccccc2N2CCOCC2)s1 | 10.9
25 | COC(CNC(=O)Cc1c(C)nc2c(-c3ccccc3)c(C)nn2c1C)OC | 11.7
26 | COC(=O)c1cccc(NC(=O)CN2CCC(NC(=O)c3cc(OC)c(OC)c(OC)c3)CC2)c1 | 2.35
27 | O=C(Nc1cc(Cl)cc(Cl)c1)C(NCC1CCCO1)c1ccccc1 (stereo not shown) | -1.52
28 | CCCn1c(CN2CCN(C(=O)OCC)CC2)nc2cc(NC(C)=O)ccc21 | 18
29 | COc1ccc(NC(=O)COC(=O)c2ccc(S(=O)(=O)N3CCCC3)cc2)cc1OC | 10.5
30 | O=C1NC(=S)N(c2ccc(Br)cc2)C(=O)/C1=C/N1CCN(C(=O)c2ccco2)CC1 | 11.1
31 | CC(=O)c1ccc(NC(=O)C2CC2c2ccccc2)cc1 (stereo not shown) | 10.1
32 | C=CCOC(=O)CCC(=O)Nc1cc(OC)nc(OC)n1 | 9.27
33 | O=[N+]([O-])c1ccc(CNc2ccc(F)cc2)s1 | -6.04
34 | COc1ccc(/C=C/C(=O)C2CC2)cc1COc1cccc(C)c1C | 7.71
35 | NC(=O)C1CCN(C(=O)CN2C(=O)c3ccccc3S2(=O)=O)CC1 | 6.69
36 | Cc1ccccc1Nc1nnc(SCC(=O)NC(=O)NCc2ccco2)s1 | 4.82
37 | COCCCNC(=O)c1ccc(Cn2c(=O)c3ccccc3n(Cc3ccccc3C)c2=O)cc1 | 13.2
38 | Cc1csc(=O)n1CC(=O)OCC(=O)Nc1cc([N+](=O)[O-])ccc1Cl | 10.8
39 | O=[N+]([O-])c1ccc(N2CCCCC2)s1 | 8.39
40 | CCOC(=O)c1ccc(NC(=O)c2c(NC(=O)CCC(=O)O)sc3c2CCCCC3)cc1 | 14.7
41 | CC(=O)c1c(C)[nH]c(C(=O)CSc2nnc(-c3cccs3)n2Cc2ccccc2)c1C | -0.253
42 | CN1/C(=C\C(=O)CSc2nncn2C)C(C)(C)c2ccccc21 | -0.577
43 | CCOc1ccc(N=C2NC(=O)S/C2=C\c2ccc(O)cc2)cc1 | 9.65
